# According to PubChem BioAssay (Tox21):
# Values joined by “and” are separate entries in the source; they are usually repeats but may differ in a detail not shown here. Identical values can stand only once. The shares of active, inactive and inconclusive entries below differ from those in the screen. For part of these data: Potencies beside an inconclusive call are fits to weak or partial responses and may not hold up. Some compounds were tested as several samples or in several runs, with calls that do not always agree. Active and inactive are the calls of the source. Unless noted, calls come from the whole dose curve; as a rule, active = well fitted curve in the direction sought with a large enough effect in the repeat runs; inconclusive = weak or mixed curves; inactive = no such curve, though single readings can be large; an effect the other way counts as inactive or inconclusive.
# What was measured:
# [1] = qHTS assay to identify small molecule antagonists of the androgen receptor (AR) signaling pathway using the MDA cell line in the presence of 0.5 nM R1881 - cell viability counter screen (AID 1259242); note: nearly all actives have a fitted effect of over 45% in size; note: potency is the fitted concentration of half-maximal effect
# Procedure, shortened: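 Live-cell protease fluorescence, CellTiter-Fluor, 30 min at 37C. Cells: MDA-kb2, 3,000/well, preincubated 5 hr. Compounds plus 0.5 nM R1881 final, 16 hr, 37C, 0% CO2.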
# [2] = qHTS assay to identify small molecule agonists of the sonic hedgehog signaling (Shh) pathway - cell viability counter screen (AID 1259366); note: potency is the fitted concentration of half-maximal effect; nearly all actives have a fitted effect of over 50% in size
# Procedure, shortened: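 Cytotoxicity counter screen: CellTiter-Fluor reagent added after 23 h compound exposure, then 1 h at 37C and fluorescence read. Cells were 3T3 Gli1-Luc, seeded 2,000 per well and dosed 4 h post-plating.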
# [3] = target: Estrogen receptor beta (Homo sapiens) (UniProt Q92731); assay: qHTS assay to identify small molecule agonists of the estrogen receptor beta (ER-beta) signaling pathway (AID 1259377; active = well fitted activation curve with a large enough effect in the signal ratio in the repeat runs, not every such curve was filed as active; inconclusive = weak or mixed curves, or effect the other way; the % refers to the signal ratio; note: potency is the fitted concentration of half-maximal effect; for activation: % is set by controls: 0 for no effect and ±100 for the full control effect); settings: ER-beta-UAS-bla HEK293T, beta-lactamase FRET ratio, 16 h; activation: at 92.4 µM (top of the series) unless noted
# Sequence of UniProt Q92731 (Q92731 whole entry, looked up): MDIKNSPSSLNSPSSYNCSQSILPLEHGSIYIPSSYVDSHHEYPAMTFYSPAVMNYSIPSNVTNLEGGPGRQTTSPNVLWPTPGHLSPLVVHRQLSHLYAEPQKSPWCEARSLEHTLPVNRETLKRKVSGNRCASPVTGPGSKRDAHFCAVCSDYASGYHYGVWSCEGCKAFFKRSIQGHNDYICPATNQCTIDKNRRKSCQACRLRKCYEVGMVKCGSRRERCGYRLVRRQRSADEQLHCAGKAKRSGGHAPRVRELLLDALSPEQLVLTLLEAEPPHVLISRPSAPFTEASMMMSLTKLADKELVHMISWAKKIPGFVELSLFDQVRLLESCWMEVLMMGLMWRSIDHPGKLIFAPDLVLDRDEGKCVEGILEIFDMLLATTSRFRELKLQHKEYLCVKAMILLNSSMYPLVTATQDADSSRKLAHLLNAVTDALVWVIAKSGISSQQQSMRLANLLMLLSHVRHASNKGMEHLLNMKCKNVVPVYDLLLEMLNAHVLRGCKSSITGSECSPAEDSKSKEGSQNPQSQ
# Procedure, shortened: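 Ratiometric beta-lactamase FRET read-out came after 2 h substrate loading at room temperature. It followed 16 h compound treatment at 37C of GripTite HEK293T cells carrying a UAS-bla reporter, plated in 2% charcoal-stripped FBS medium.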
# [4] = target: Estrogen receptor beta (Homo sapiens) (UniProt Q92731); assay: qHTS assay to identify small molecule antagonists of the estrogen receptor beta (ER-beta) signaling pathway (AID 1259378; active = well fitted inhibition curve with a large enough effect in the signal ratio in the repeat runs, not every such curve was filed as active; inconclusive = weak or mixed curves, or effect the other way; inactive = no such curve, though single readings can be large or run the other way; the % refers to the signal ratio; note: potency is the fitted concentration of half-maximal effect); settings: ER-beta-UAS-bla HEK293T, beta-lactamase FRET ratio, 16 h; activity, negative = inhibition: at 92.4 µM (top of the series) unless noted
# Procedure, shortened: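 Antagonist mode: compounds added to beta-lactamase reporter HEK293T ER-beta-UAS cells stimulated with E2 (1nM final), 16 hr at 37C. LiveBLAzer B/G FRET substrate, 2 hours room temperature, fluorescence read-out.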
# [5] = qHTS assay to identify small molecule agonists of the androgen receptor (AR) signaling pathway in the presence of an antagonist - cell viability counter screen (AID 1259379); note: potency is the fitted concentration of half-maximal effect; nearly all actives have a fitted effect of over 25% in size
# Procedure, shortened: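 Viability counter screen: CellTiter-Fluor fluorescence, measured in the same wells as the luciferase read-out. MDA-kb2 cells, 3,000/well, with nilutamide at 3.0uM final and compounds at 15 concentrations, 16 hr at 37C, 0% CO2.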
# [6] = qHTS assay to identify small molecule antagonists of the estrogen receptor beta (ER-beta) signaling pathway - cell viability counter screen (AID 1259382); note: potency is the fitted concentration of half-maximal effect; nearly all actives have a fitted effect of over 55% in size
# Procedure, shortened: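 Luminescent ATP read-out (CellTiter-Glo, 30 min, RT) taken in the same wells as the bla reporter assay. HEK293T ER-beta-UAS-bla cells in 2% charcoal-stripped FBS were exposed to compounds with 1nM E2 for 16 hr at 37C.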
# [7] = target: Thyrotropin receptor (Homo sapiens) (UniProt P16473); assay: qHTS assay to identify small molecule antagonists of the thyroid stimulating hormone receptor (TSHR) signaling pathway (AID 1259385; calls by dose curve; note: nearly all actives have a fitted effect of over 20% in size; note: potency is the fitted concentration of half-maximal effect; for activity change, negative = inhibition: % is set by controls: 0 for no effect and ±100 for the full control effect); settings: TSHR-HEK293 cAMP HTRF, TSH-stimulated antagonist mode; activity change, negative = inhibition: at 92.4 µM (top of the series) unless noted
# Sequence of UniProt P16473 (P16473 whole entry, looked up): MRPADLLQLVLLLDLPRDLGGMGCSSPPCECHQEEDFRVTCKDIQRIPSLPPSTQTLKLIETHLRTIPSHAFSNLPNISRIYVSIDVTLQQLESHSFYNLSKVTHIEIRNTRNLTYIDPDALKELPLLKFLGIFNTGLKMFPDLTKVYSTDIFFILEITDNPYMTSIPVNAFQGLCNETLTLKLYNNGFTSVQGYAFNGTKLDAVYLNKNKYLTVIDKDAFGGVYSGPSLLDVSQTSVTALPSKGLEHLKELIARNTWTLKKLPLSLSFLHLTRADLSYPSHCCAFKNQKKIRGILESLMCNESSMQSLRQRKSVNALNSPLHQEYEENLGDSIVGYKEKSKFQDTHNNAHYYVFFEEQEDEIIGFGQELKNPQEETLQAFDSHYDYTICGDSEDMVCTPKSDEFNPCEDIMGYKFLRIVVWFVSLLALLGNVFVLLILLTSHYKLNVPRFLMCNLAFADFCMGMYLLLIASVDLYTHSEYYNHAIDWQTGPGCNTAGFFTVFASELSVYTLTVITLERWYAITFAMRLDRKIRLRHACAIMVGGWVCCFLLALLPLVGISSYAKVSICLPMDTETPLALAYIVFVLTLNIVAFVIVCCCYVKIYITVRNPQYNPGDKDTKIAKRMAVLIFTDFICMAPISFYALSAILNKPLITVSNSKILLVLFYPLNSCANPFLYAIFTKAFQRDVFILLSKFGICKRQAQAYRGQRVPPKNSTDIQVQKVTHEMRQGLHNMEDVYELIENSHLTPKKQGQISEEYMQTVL
# Procedure, shortened: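 Antagonist mode: compound-treated TSHR-expressing HEK293 cells were stimulated with 1.5 ng/mL TSH (final) in presence of Ro20-1724 for 30 min at RT. HTRF cAMP detection after 1 h; each compound tested at 15 concentrations, triplicate.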
# [8] = qHTS assay to identify small molecule antagonists of the sonic hedgehog signaling (Shh) pathway - cell viability counter screen (AID 1259367); note: potency is the fitted concentration of half-maximal effect; nearly all actives have a fitted effect of over 55% in size
# Procedure, shortened: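 CellTiter-Fluor signal in conditioned medium-stimulated 3T3 Gli1-Luc cells, 23 hr compound exposure, 37C.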
# [9] = qHTS assay to identify small molecule agonists of the estrogen receptor beta (ER-beta) signaling pathway - cell viability counter screen (AID 1259380); note: potency is the fitted concentration of half-maximal effect; nearly all actives have a fitted effect of over 30% in size
# Procedure, shortened: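 Luminescence read-out (CellTiter-Glo, 30 min, room temp) taken in the same wells as the beta-lactamase reporter assay; ER-beta-UAS-bla HEK293T cells exposed to DMSO-dissolved compounds for 16 hr at 37C in 2% charcoal-stripped FBS medium.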
# [10] = qHTS assay to identify small molecule HDAC inhibitors - cell viability counter screen (AID 1259365); note: potency is the fitted concentration of half-maximal effect; nearly all actives have a fitted effect of over 50% in size
# Procedure, shortened: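 CellTiter-Glo luminescence (30 min, room temperature) reported viability after a 2 h compound exposure at 37 C. Cells: wild-type HCT-116, 1,500 per well, seeded the night before.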
# [11] = qHTS assay to identify small molecule agonists of the estrogen receptor alpha (ER-alpha) signaling pathway in the presence of an antagonist - cell viability counter screen (AID 1259386);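 note: potency is the fitted concentration of half-maximal effect; cells exposed to compounds for 22 h at 37 °C before the viability read; nearly all actives have a fitted effect of over 30% in size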
# Procedure, shortened: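 Read-out: CellTiter-Fluor fluorescence after 1hr reagent incubation, measured in the same wells as the luciferase readout. VM7Luc4E2 cells were exposed to 15 compound concentrations with 10.0nM ICI-182,780 for 22hr at 37C.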
# [12] = qHTS assay to identify small molecule agonists or antagonists of the thyroid stimulating hormone receptor (TSHR) signaling pathway - wild type cell line counter screen (AID 1259384; calls by dose curve; note: % is set by controls: 0 for no effect and ±100 for the full control effect); settings: HEK293 wild type, cAMP HTRF counter-screen; cAMP activity change: at 92.4 µM (top of the series), stronger effect = higher value unless noted
# Procedure, shortened: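 Counter screen in untransfected Hek293: compounds (15-point titration, triplicate) plus phosphodiesterase inhibitor Ro20-1724 added after 18 h plating; 30 min RT. Intracellular cAMP via competitive d2/cryptate immunoassay, 1 h incubation.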
# Tags give direction and shape of the fitted curve or compound fluorescence and quenching.
smiles,measurement,setting,value
CN[C@H]1CC[C@@H](c2ccc(Cl)c(Cl)c2)c2ccc(S(N)(=O)=O)cc21,Potency,[1],"inconclusive: 68.6 µM [cytotoxic, single point]"
same,Potency,[2],active: 30.6 µM
same,Potency,[3],"inconclusive: 24.3 µM [rising, partial curve, poor fit]"
same,Potency,[4],active: 24.3 µM
same,Potency,[5],"inconclusive: 68.6 µM [cytotoxic, single point]"
same,Potency,[6],active: 21.7 µM
same,Potency,[7],inconclusive: 68.6 µM
CCCCCCCCOC(=O)c1cc(O)c(O)c(O)c1,Potency,[1],"inconclusive: 30.6 µM [cytotoxic, partial curve]"
same,Potency,[2],active: 24.3 µM
same,Potency,[8],"inconclusive: 6.11 µM [cytotoxic, full curve]"
same,Potency,[4],active: 15.4 µM
same,Potency,[9],active: 68.6 µM
same,Potency,[6],"inconclusive: 68.6 µM [cytotoxic, single point]"
CCCCC(CC)CN1CN(CC(CC)CCCC)CC(C)(N)C1 (centres undefined),Potency,[1],active: 26.6 µM
same,Potency,[2],"inconclusive: 33.5 µM [cytotoxic, single point]"
same,Potency,[9],"inconclusive: 23.7 µM [cytotoxic, partial curve]"
same,Potency,[7],active: 21.1 µM
CN(C[C@@H](CC[N+]12CCC(C3CCCCC3)(CC1)CC2)c1ccc(Cl)c(Cl)c1)C(=O)c1cc(C(F)(F)F)cc(C(F)(F)F)c1,Potency,[1],"inconclusive: 61.1 µM [cytotoxic, single point]"
same,Potency,[10],active: 12.2 µM
same,Potency,[2],"inconclusive: 68.6 µM [cytotoxic, single point]"
same,Potency,[3],inconclusive: 54.5 µM
same,Potency,[4],"inconclusive: 34.4 µM [cytotoxic, full curve]"
same,Potency,[5],active: 68.6 µM
same,Potency,[9],active: 30.6 µM
same,Potency,[6],active: 17.2 µM
same,Potency,[11],"inconclusive: 61.1 µM [cytotoxic, partial curve]"
CC(C)c1cccc(C(C)C)c1N1C(=O)c2ccc(O)cc2C1=O,Potency,[1],inactive
same,Potency,[2],"inconclusive: 54.5 µM [rising, partial curve]"
same,Potency,[5],inconclusive: 68.6 µM [cytotoxic]
same,Potency,[9],"inconclusive: 68.6 µM [cytotoxic, single point]"
same,Potency,[6],"inconclusive: 68.6 µM [cytotoxic, single point]"
CCCCCCCCCCCC(=O)NCCCN(C)C,Potency,[1],"inconclusive: 68.6 µM [cytotoxic, single point]"
same,Potency,[2],"inconclusive: 68.6 µM [cytotoxic, single point]"
same,Potency,[8],"inconclusive: 68.6 µM [cytotoxic, single point]"
same,activation,[3],inconclusive: -8.8%
same,Potency,[4],"inconclusive: 68.6 µM [inhibitor, single point]"
same,Potency,[5],"inconclusive: 68.6 µM [cytotoxic, single point]"
same,Potency,[7],active: 61.1 µM
Cc1cc2nc3c(=O)[nH]c(=O)nc-3n(C[C@H](O)[C@H](O)[C@H](O)CO)c2cc1C,Potency,[1],"inconclusive: 53.9 µM [rising, partial curve] and inconclusive: 56.7 µM [rising, partial curve] and inconclusive: 13 µM [rising, partial curve]"
same,Potency,[2],"inconclusive: 21.5 µM [rising, partial curve] and inconclusive: 22.6 µM [rising, partial curve] and inconclusive: 13 µM [rising, partial curve]"
same,Potency,[8],"inconclusive: 19.1 µM [rising, partial curve] and inconclusive: 20.1 µM [rising, partial curve] and inconclusive: 13 µM [rising, partial curve]"
same,Potency,[3],inconclusive: 67.9 µM
same,Potency,[4],"inconclusive: 67.9 µM [rising, single point] and inconclusive: 63.7 µM [rising, single point]"
same,Potency,[5],"inconclusive: 53.9 µM [rising, partial curve] and inconclusive: 31.9 µM [rising, partial curve] and inconclusive: 11.6 µM [rising, partial curve]"
same,cAMP activity change,[12],inconclusive: 0.0076% and inconclusive: 0.93%
same,"activity change, negative = inhibition",[7],inconclusive: -15.5% [at 19 µM]
same,Potency,[11],"inconclusive: 53.9 µM [rising, partial curve] and inconclusive: 28.4 µM [rising, partial curve] and inconclusive: 13 µM [rising, partial curve]"
CCCCCCCCCCCCOC(=O)c1cc(O)c(O)c(O)c1,Potency,[1],"inconclusive: 68.6 µM [cytotoxic, single point]"
same,Potency,[10],"inconclusive: 68.3 µM [cytotoxic, single point]"
same,Potency,[2],"active: 43.1 µM and inconclusive: 77 µM [cytotoxic, single point]"
same,Potency,[8],active: 34.2 µM and active: 6.11 µM
same,Potency,[4],"inconclusive: 76.6 µM [cytotoxic, single point] and inconclusive: 68.6 µM [cytotoxic, single point]"
same,Potency,[7],active: 68.3 µM
same,Potency,[11],"inconclusive: 54.5 µM [cytotoxic, partial curve]"
